The name of at least one read-out is uncertain.
Test system: normal drug-sensitive strain of Plasmodium berghei
Experiment: Plasmodium berghei in mice, single subcutaneous dose 72 h post infection, mean survival time and cures
Assay type: in vivo
Details: Table II; for MST after single s.c. dose, mg/kg (extension of survival time over the controls): animals not cured, control MST 6.1-6.3 days; for MST after single s.c. dose, mg/kg: animals cured (C): five animal group
Procedure: Compounds of the invention were tested against a normal drug-sensitive strain of Plasmodium berghei in mice by the parenteral route by a procedure described in J. Med. Chem., 1043 (1967). The compounds were dissolved or suspended in sesame or peanut oil and were administered to mice in a single subcutaneous dose seventy-two hours post infection. Extension of the mean survival time of the treated mice is interpreted as evidence of anti-malarial activity. Compounds are arbitrarily considered to be "active" when they produce at least a 100 percent increase in the mean survival time of treated mice. Animals that survive to sixty days are considered "cured" (termed "C" in Tables I and II). The means survival time (MST) of infected control mice ranges from 6.1-6.3 days while the numbers in parentheses in Tables I and II indicate extension of survival time over the controls as an average for those animals of the five animal group not "cured".

| SMILES | MST after single s.c. dose, mg/kg (extension of survival time over the controls) (5 mg/kg s.c.) [days] | MST after single s.c. dose, mg/kg (extension of survival time over the controls) (10 mg/kg s.c.) [days] | MST after single s.c. dose, mg/kg (extension of survival time over the controls) (20 mg/kg s.c.) [days] | MST after single s.c. dose, mg/kg (extension of survival time over the controls) (40 mg/kg s.c.) [days] | MST after single s.c. dose, mg/kg (extension of survival time over the controls) (80 mg/kg s.c.) [days] | MST after single s.c. dose, mg/kg: animals cured (C) (80 mg/kg s.c.) | MST after single s.c. dose, mg/kg (extension of survival time over the controls) (160 mg/kg s.c.) [days] | MST after single s.c. dose, mg/kg: animals cured (C) (160 mg/kg s.c.) | MST after single s.c. dose, mg/kg (extension of survival time over the controls) (320 mg/kg s.c.) [days] | MST after single s.c. dose, mg/kg: animals cured (C) (320 mg/kg s.c.) | MST after single s.c. dose, mg/kg (extension of survival time over the controls) (640 mg/kg s.c.) [days] | MST after single s.c. dose, mg/kg: animals cured (C) (640 mg/kg s.c.) | MST after single s.c. dose, mg/kg: animals cured (C) (20 mg/kg s.c.) | MST after single s.c. dose, mg/kg: animals cured (C) (40 mg/kg s.c.) | MST after single s.c. dose, mg/kg: animals cured (C) (5 mg/kg s.c.) | MST after single s.c. dose, mg/kg: animals cured (C) (10 mg/kg s.c.) |
| --- | --- | --- | --- | --- | --- | --- | --- | --- | --- | --- | --- | --- | --- | --- | --- | --- |
| Oc1c(CN2CCCC2)cc(Nc2ccnc3cc(Cl)ccc23)cc1-c1ccc(Cl)c(Cl)c1 [3—Cl, 4—Cl, [drawing], 0] | -0.1 | 0.1 | 8.3 | 20.0 | 30.2 | 1 | 27.4 | 4 | 25.9 | 3 | 33.9 | 3 |  |  |  |  |
| CCN(CC)Cc1cc(Nc2ccnc3cc(Cl)ccc23)cc(-c2ccccc2Cl)c1O [Example 4, 2'-chloro-5-[(7-chloro-4-quinolinyl)amino]-3-[(diethylamino)methyl][1,1'-biphenyl]-2-0l] |  |  | 17.2 | 40.9 |  | 5 | 41.9 | 4 | 41.9 | 4 |  | 5 | 2 | 3 |  |  |
| CCN(CC)Cc1cc(Nc2ccnc3cc(Cl)ccc23)cc(-c2ccccc2OC)c1O [2—OMe, H, N(Et)2, 0] |  |  | 8.9 | 10.3 | 14.9 | 2 | 18.9 | 2 | 37.9 | 2 |  | 5 |  |  |  |  |
| CCN(CC)Cc1cc(Nc2cc[n+]([O-])c3cc(Cl)ccc23)cc(-c2ccc(OC)cc2)c1O [4—OCH3, H, N(Et)2, 1] | 0.1 | 1.1 | 3.7 | 3.5 |  |  | 7.3 |  |  |  | 27.4 | 4 |  |  |  |  |
| CC(C)(C)NCc1cc(Nc2ccnc3cc(Cl)ccc23)cc(-c2ccc(Cl)cc2)c1O [Example 3, 4'-chloro-5-[(7-chloro-4-quinolinyl)amino]-3-[[(1,1-dimethylethyl)amino]methyl][1,1'-biphenyl]-2-ol] | 11.4 | 14.9 | 14.4 | 19.9 | 14.9 | 3 | 15.2 | 2 | 16.4 | 1 | 16.7 |  | 3 | 4 | 1 | 2 |
| [O-][n+]1ccc(Nc2cc(CN3CCCC3)c(O)c(-c3ccc(Cl)c(Cl)c3)c2)c2ccc(Cl)cc21 [3—Cl, 4—Cl, [drawing], 1] |  | 0.7 | 2.3 | 7.9 | 8.8 |  | 25.4 | 2 | 24.4 | 3 |  | 5 |  |  |  |  |
| CCN(CC)Cc1cc(Nc2cc[n+]([O-])c3cc(Cl)ccc23)cc(-c2ccc(Cl)c(Cl)c2)c1O [3—Cl, 4—Cl, N(Et)2, 1] | 0.7 | 5.9 | 10.5 | 21.2 | 25.7 | 2 | 29.1 | 2 |  | 5 |  | 5 |  | 1 |  |  |
| CCN(CC)Cc1cc(Nc2ccnc3cc(Cl)ccc23)cc(-c2ccc(Cl)cc2)c1O [Example 2, 4'-chloro-5-[(7-chloro-4-quinolinyl)amino]-3-[(diethylamino)methyl][1,1'-biphenyl]-2-ol] | 20.7 | 30.2 | 33.7 |  |  | 5 | 11.9 | 4 | 11.2 | 2 | 11.9 | 1 | 1 | 5 |  | 1 |
| CCN(CC)Cc1cc(Nc2ccnc3cc(Cl)ccc23)cc(-c2ccc(Cl)c(Cl)c2)c1O [3—Cl, 4—Cl, N(Et)2, 0] | 0.3 | 0.9 | 15.7 | 28.9 | 33.4 | 4 |  | 5 |  | 5 | 10.9 | 3 |  | 2 |  |  |
| CCN(CC)Cc1cc(Nc2cc[n+]([O-])c3cc(Cl)ccc23)cc(-c2ccccc2Cl)c1O [2—Cl, H, N(Et)2, 1] | 6.4 | 2.6 | 6.2 | 9.4 | 14.9 | 2 | 18.9 | 2 | 37.9 | 2 |  | 5 |  |  |  |  |

From patent EP0027679B1, “Substituted-5-((7-chloro-4-quinolinyl)amino)-3-(amino-methyl)-(1,1'-biphenyl)-2-ol compounds; processes for their production; and pharmaceutical compositions containing the compounds” (WARNER-LAMBERT COMPANY, priority 1979, dated 1981)
